PubChem BioAssay AID624170 (National Center for Advancing Translational Sciences (NCATS), 2012)
The campaign covered roughly 410,000 compounds. About 850 (0.21%) were called active. Inconclusive results, whose numbers are uncertain, are shown with a selection of clear calls. The call rests on the fitted dose curve; in most records, active means well fitted inhibition curve with a large enough effect; inconclusive means small, poorly fitted or top-dose-only effect, or another doubt; inactive means no such curve, though single readings can be large or run the other way. Potencies of inconclusive entries are left out as doubtful fits.

Target: Glutaminase kidney isoform, mitochondrial (Homo sapiens) (UniProt O94925)
Assay: qHTS for Inhibitors of Glutaminase (GLS)
Settings: GLS enzymatic activity, qHTS titration; series mostly up to 45.5 µM
Method in brief: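 Assay buffer: 45 mM KH2PO4 pH 8.2, 0.02% Tween-20. hKGA acts on L-glutamine (1 mM solution added); product glutamate is reported by an oxidase/peroxidase Amplex Red coupling, with fluorescence taken at baseline and 30 min.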
Potency means the concentration at half of the fitted maximal effect; tags describe the fitted curve by direction and shape.

Chain of UniProt O94925 (O94925 whole entry, looked up, canonical isoform): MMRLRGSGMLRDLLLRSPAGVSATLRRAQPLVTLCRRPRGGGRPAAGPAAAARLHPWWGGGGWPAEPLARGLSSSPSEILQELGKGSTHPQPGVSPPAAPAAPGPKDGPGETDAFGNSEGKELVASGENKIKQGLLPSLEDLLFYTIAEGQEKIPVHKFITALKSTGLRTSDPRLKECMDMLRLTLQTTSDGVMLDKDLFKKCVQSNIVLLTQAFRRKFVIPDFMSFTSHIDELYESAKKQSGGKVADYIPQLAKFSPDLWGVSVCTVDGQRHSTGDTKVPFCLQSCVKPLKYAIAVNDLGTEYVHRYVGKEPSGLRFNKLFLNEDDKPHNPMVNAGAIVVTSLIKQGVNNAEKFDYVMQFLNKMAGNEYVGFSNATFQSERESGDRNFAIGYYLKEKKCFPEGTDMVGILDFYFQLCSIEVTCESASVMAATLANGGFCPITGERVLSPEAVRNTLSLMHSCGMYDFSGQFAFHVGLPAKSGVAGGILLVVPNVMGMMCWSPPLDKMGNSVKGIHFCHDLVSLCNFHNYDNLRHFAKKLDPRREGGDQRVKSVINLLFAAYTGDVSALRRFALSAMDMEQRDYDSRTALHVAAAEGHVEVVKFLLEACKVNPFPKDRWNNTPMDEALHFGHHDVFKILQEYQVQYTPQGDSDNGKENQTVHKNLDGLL

Compound	Potency
O=C(O)C(c1ccccc1)N1C(=O)/C(=C\c2ccc(-c3cccc(Cl)c3)o2)SC1=S (stereo not drawn)	inconclusive [inhibitor, single point]
COc1cccc(NC(=S)N2CCN(c3ccccn3)CC2)c1	inconclusive [inhibitor, single point]
CCn1nnnc1SCC(=O)Nc1ccc(OC)cc1	inconclusive [inhibitor, single point]
CS(=O)(=O)NCC(c1ccco1)N1CCN(c2ccc(F)cc2)CC1 (stereo not drawn)	inactive
O=C(/C=C/c1ccco1)Nc1cccc(NC(=O)/C=C/c2ccco2)n1	inactive
Cc1ccnc(NC(=O)c2ccc([N+](=O)[O-])o2)c1	inconclusive [inhibitor, single point]
CCC(CO)Oc1cc(NC(=O)c2ccccc2)c2ncn(C(C)C)c2c1 (stereo not drawn)	inconclusive [inhibitor, single point]
COc1ccccc1CNc1nc(Nc2ccccc2Cl)c2sccc2n1	inconclusive [inhibitor, single point]
O=C(/C=C/c1ccco1)c1cccnc1	inconclusive [inhibitor, single point]
Cn1cnc2c1c(=O)n(Cc1ccccc1)c(=O)n2C	inconclusive [inhibitor, partial curve]
Cc1ccsc1C(=O)N1CCC1(C)C(=O)NCCC#N (stereo not drawn)	inactive
COc1cccc(NC(=S)N(CCN(C)C)C(C)c2cccnc2)c1 (stereo not drawn)	inconclusive [inhibitor, single point]
C[C@@H]1CN([C@H](C)CO)C(=O)CCCn2cc(nn2)CO[C@H]1CN(C)C(=O)Nc1cccc(C(F)(F)F)c1	inactive
COc1ccc(OCc2nc(C#N)c(NCc3ccccc3Cl)o2)cc1	inactive
CN1CCN(C(=S)c2cn(Cc3ccc(F)cc3)c3ccccc23)CC1	inactive
COc1c(Cl)cc(C(=O)Nc2ccccc2C(=O)O)cc1Cl	inconclusive [inhibitor, single point]
CC(=O)Nc1ccc(S(=O)(=O)Nc2nc3n(n2)C(c2ccccc2)C=C(c2ccc(Cl)cc2)N3)cc1 (stereo not drawn)	inconclusive [inhibitor, single point]
COc1cc(C)ccc1OCCOCCOc1cc(C)c(C)cc1Br	inactive
O=C(NCc1ccc2c(c1)OCO2)c1ccc(NS(=O)(=O)c2ccc3c(c2)OCCO3)cc1	inactive
CC(=O)Nc1ccc(Nc2nc(-c3cc4ccccc4oc3=O)cs2)cc1	inconclusive [inhibitor, partial curve]
S=c1[nH]c(-c2ccccc2)cs1	inconclusive [inhibitor, single point]
CN(CCC#N)C(=O)COC(=O)c1c2c(nc3ccccc13)/C(=C/c1ccco1)CC2	active: 6.31 µM
Clc1ccc(OCc2cn3ccccc3n2)c2ncccc12	inconclusive [inhibitor, single point]

Compound	Potency
Cc1ccc(C(=O)/C=C/c2cn(CC(O)CN3CCCCCC3)c3ccccc23)cc1 (stereo not drawn)	inactive
CC(C(=O)N1CCCC1)N1CCN(c2ccccc2O)CC1 (stereo not drawn)	inconclusive [inhibitor, partial curve]
CCC(C)NC(=O)CCC(=O)NNc1nc2ccccc2c2nc(C)nn12 (stereo not drawn)	inconclusive [inhibitor, partial curve]
O=C(Nc1nccs1)c1cn(-c2ccccc2)nc1-c1ccncc1	inconclusive [inhibitor, single point]
CCCC(=O)NC(=S)Nc1ccc(S(=O)(=O)N2CCc3ccccc32)cc1	inactive
O=C1CCC(C2CCc3cc(O)ccc3C2)C1 (stereo not drawn)	inconclusive [inhibitor, single point]
CC1(C)CC(c2nc(-c3ccccc3)cs2)CCS1 (stereo not drawn)	inconclusive [inhibitor, partial curve, poor fit]
COc1ccc(NCc2cc3cc4c(cc3n(CC(=O)Nc3ccccc3)c2=O)OCO4)cc1	inconclusive [inhibitor, partial curve, poor fit]
Cc1c(C(=O)Nc2nc3ccccc3[nH]2)oc2c(Cl)cccc12	inconclusive [inhibitor, single point]
Cc1ccc(C)c(NC(=O)c2nnn(Cc3ccccc3C)c2N)c1	inactive
O=C(Nc1ccccc1C(=O)O)c1ccc(NC(=O)C2CCCCC2)cc1	inactive
Cc1ccsc1C(=O)Nc1ccccc1N1CCCC1	inconclusive [inhibitor, partial curve, poor fit]
COc1ccc(S(=O)(=O)/N=C2/NC(=O)/C(=C\c3ccco3)S2)cc1	inactive
CCOC(=O)c1ccc(CC(=O)c2ccc(O)c(O)c2O)o1	inconclusive [inhibitor, single point]
O=C(O)c1ccc(N2C(=O)c3cccc4c(C(=O)O)ccc(c34)C2=O)cc1	inconclusive [inhibitor, single point]
Cc1c(C(=O)O)sc2c1c(=O)n(Cc1ccccc1)c(=O)n2C	inconclusive [inhibitor, single point]
CC(C)C[C@@H](CNCC(=O)[C@H](CC(=O)O)NC(=O)c1[nH]cnc1C(=O)N[C@H](CN)CC(C)C)NC(=O)c1nc[nH]c1C(=O)N[C@@H](Cc1ccccc1)C(=O)O	inconclusive [inhibitor, single point]
CC(C)N(c1ccccc1)c1ccc(NC(=O)C2CCCO2)cc1 (stereo not drawn)	inconclusive [inhibitor, single point]
CCOC(=O)CNC(=O)Nc1cccc(Cl)c1C	inactive
CCOC(=O)c1cn(C2CC2)c2c(F)c(NCCCN(C)C)c(F)cc2c1=O	inconclusive [inhibitor, single point]
C#Cc1ccc([C@@H]2C=C(C(=O)O)O[C@H](OCC)[C@H]2CCCO)cc1	inconclusive [inhibitor, partial curve, poor fit]
Cc1cc(C)c2c(C)nn(C3CCCCC3)c2n1	inconclusive [inhibitor, single point]
CC(=O)Nc1ccc(/C=N/Nc2nncc3ccccc23)cc1	inconclusive [inhibitor, partial curve, poor fit]

Compound	Potency
Nc1nc(SCC(=O)c2ccc(Cl)cc2)c2ncn(C3OC(CO)C(O)C3O)c2n1 (stereo not drawn)	inconclusive [inhibitor, partial curve]
C=CCN1C(=O)NC(c2ccc(OC)cc2)(C(F)(F)F)S/C1=C(\C#N)c1nnc(N2CCOCC2)n1-c1ccccc1 (stereo not drawn)	inconclusive [inhibitor, single point]
CN(/N=C/c1cc(Cl)cc(Cl)c1O)c1c(Cl)cccc1[N+](=O)[O-]	inactive
COc1ccc(N/N=C(\C#N)C(=O)NCCc2ccc(OC)c(OC)c2)cc1	inconclusive [inhibitor, single point]
Cc1cc(C)cc(S(=O)(=O)c2cnc3ccccc3n2)c1	inconclusive [inhibitor, single point]
CCC(=O)OCCNc1cc(Sc2nc3ccccc3[nH]2)c2nonc2c1[N+](=O)[O-]	inconclusive [inhibitor, partial curve]
CCc1ccccc1NC(=O)CSc1nc2n[nH]c(C)c2c(=N)n1-c1cccc(OC)c1	inconclusive [inhibitor, single point]
COc1cc(/C=N\NC(=O)CNC(=O)C(c2ccccc2)c2ccccc2)ccc1O	active: 11.2 µM
COc1ccc(C(=O)c2sc(Nc3ccccc3)nc2N)cc1OC	inconclusive [inhibitor, partial curve]
COC(=O)c1cc(O)cc(OC)c1Oc1cc(C)cc(O)c1C(=O)O	active: 11.2 µM
COc1ccc(C(=O)Nc2nc3nc(C)c(Cl)c(=O)n3[nH]2)cc1	inactive
O=C(O)COc1ccc(/C=N/NC(=O)c2ccc(-c3csc(Nc4ccc(Cl)cc4)n3)cc2)cc1	inconclusive [inhibitor, full curve, poor fit]
O=C(Nc1cccc2cccnc12)c1cc(F)c(F)cc1Cl	inconclusive [inhibitor, single point]
Nc1c(C(=O)Nc2ccc(Cl)c(C(=O)O)c2)sc2nc3c(cc12)CCCC3	inconclusive [inhibitor, single point]
CCc1ccc(NCc2cc3cc4c(cc3n(CC(=O)Nc3ccc(C)cc3)c2=O)OCO4)cc1	inconclusive [inhibitor, partial curve]
COc1cc(NC(=O)c2cc(-c3cccs3)on2)cc(OC)c1OC	inconclusive [inhibitor, single point]
Nc1ccc(SCc2cccnc2)cc1	inconclusive [inhibitor, partial curve, poor fit]
CCc1n[nH]c(=S)n1/N=C/c1ccc(N(CC)CC)cc1	inconclusive [inhibitor, single point]
CN(Cc1ccccc1)C(=O)c1ccccc1N(C)S(=O)(=O)c1ccccc1	inconclusive [inhibitor, single point]
O=C1Nc2ccccc2C1=Nc1ccc(S(=O)(=O)Nc2nccs2)cc1	inactive
COC(=O)/C(C#N)=C/c1c(N2CCN(c3ccccc3)CC2)nc2ccccn2c1=O	inactive
Cc1nc(NC2=NCN(Cc3cccnc3)CN2)nc2ccccc12	inactive
